Measured values from the supplement of paper PMC3724861.
Some of the results follow.

Tested on: T1, Caupolican (Caup) homeodomain DNA-binding domain
T1 sequence: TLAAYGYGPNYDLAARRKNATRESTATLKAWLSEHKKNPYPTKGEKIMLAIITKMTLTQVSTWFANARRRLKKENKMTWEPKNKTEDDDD
Test: PBM E-score (8-mer, recovered from the published 9-mer minima) (E-score (dimensionless, -0.5 to 0.5)); Drosophila protein; higher = stronger relative binding preference, active = 0.31 or more
Outline: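 Caup's homeodomain DNA-binding domain (residues 214-303) was made by in vitro transcription and translation and applied at 100 nM to custom-designed protein binding microarrays. Each value is an enrichment score that gives relative binding preference for a short DNA word, with higher meaning stronger. The 8-mer values were recovered from published 9-mer scores, each of which was the minimum of its two constituent 8-mer scores. A cutoff of 0.31 marks candidate sites.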

| Sequence | PBM E-score |
| --- | --- |
| GCACTGCC | inactive: -0.167 |
| TGAGAAAA | inactive: -0.00743 |
| AGAGTGAA | inactive: 0.0458 |
| GGCTAGAA | inactive: -0.139 |
| ACGCCCCT | ≥ -0.11 |
| AGAGGCGC | inactive: -0.141 |
| ACGACCAC | inactive: 0.0805 |
| ACCAAGAG | inactive: -0.0676 |
| GGAATACA | inactive: 0.243 |
| ACGTTCCT | ≥ 0.0171 |
| CTAACAAG | inactive: 0.287 |
| AGCGGATA | inactive: -0.153 |
| ATCGGGGA | ≥ -0.0407 |
| CGGCTCTC | inactive: -0.209 |
| GAGCTCAA | inactive: -0.094 |
| CGGCGCCC | inactive: -0.213 |
| CTTTGGGA | inactive: -0.0957 |
| AGGATCCT | ≥ 0.0286 |
| CTGTACAG | inactive: 0.164 |
| ATGCTTGC | inactive: -0.0802 |
| ACATTACG | inactive: 0.136 |
| CCCCACAA | inactive: -0.128 |
| CGCCTCTA | inactive: -0.07 |
| CCGACAGA | inactive: 0.0333 |
| GCAACAAA | inactive: 0.15 |

| Sequence | PBM E-score |
| --- | --- |
| CGAAGCTA | inactive: -0.0431 |
| AGGTAACC | inactive: -0.0119 |
| CGGATTCC | inactive: -0.138 |
| GCTGGAAC | inactive: -0.0888 |
| GCACGTGC | inactive: 0.0135 |
| ACACCAAA | inactive: 0.177 |
| CCCGATCC | inactive: -0.127 |
| AATAGTTG | inactive: 0.116 |
| GCATTTAC | inactive: 0.0558 |
| AAAACAAA | inactive: 0.167 |
| CGTCACGC | inactive: -0.101 |
| CACGCCAC | inactive: -0.0888 |
| AAGCACGA | ≥ 0.116 |
| CTGATTCC | inactive: -0.0155 |
| GAGGGCGA | inactive: -0.295 |
| CAGAGGTC | inactive: -0.186 |
| ACATTGAT | inactive: 0.267 |
| GGGAAAAA | inactive: -0.0666 |
| AGCCCACC | inactive: -0.253 |
| AGTTGCCC | inactive: -0.0405 |
| GCCCGACC | inactive: -0.192 |
| CGCGCCTC | inactive: -0.155 |
| AGTAATGA | inactive: 0.11 |
| AGTAGATA | inactive: 0.131 |
| AAGTCAGT | inactive: 0.0955 |

| Sequence | PBM E-score |
| --- | --- |
| AGGAAGTC | inactive: -0.0996 |
| AAGGCAAG | inactive: -0.0316 |
| ACAGCGCG | inactive: 0.0201 |
| ATCTGTGC | inactive: 0.0661 |
| CGAGGAGA | inactive: -0.0988 |
| GATCATGC | inactive: 0.00593 |
| AATCGGTG | inactive: 0.0507 |
| AATAGCAG | inactive: 0.0384 |
| AGGACACC | inactive: 0.0321 |
| ATTCTATC | inactive: 0.0882 |
| GTTCCAAA | inactive: 0.0475 |
| CTAGGGTA | inactive: -0.0446 |
| ACCTCGAC | inactive: -0.00397 |
| ACCGCTGA | inactive: -0.0193 |
| GGCATATA | inactive: 0.0927 |
| AGGTGGGA | inactive: -0.134 |
| AATAAACA | inactive: 0.266 |
| GACTCCGA | inactive: -0.0915 |
| GAGAAATC | inactive: 0.00048 |
| ACGTCTCC | inactive: -0.0273 |
| CGGCGACA | inactive: 0.0775 |
| ACGTTGTG | inactive: 0.0355 |
| AATGGGAG | inactive: -0.0486 |
| TGGGTAAA | inactive: -0.088 |
| CCAAACGC | inactive: -0.146 |

| Sequence | PBM E-score |
| --- | --- |
| ACCCGATG | inactive: -0.111 |
| GCACAGCC | inactive: -0.176 |
| TAAAAACA | inactive: 0.261 |
| AAGCCCGT | inactive: -0.157 |
| AAGACTAG | inactive: 0.0385 |
| GTCTTGAA | inactive: 0.0106 |
| CTTCAGCA | inactive: -0.0659 |
| ATCTTTGA | inactive: -0.00898 |
| GCCGACAA | inactive: 0.129 |
| CCAAGGGC | inactive: -0.185 |
| AAACGTTA | inactive: 0.0884 |
| ACACCAGA | ≥ 0.166 |
| CCTTCCCC | inactive: -0.25 |
| CGTAACCA | inactive: 0.105 |
| CGGAACCG | inactive: -0.0984 |
| GATACATA | active: 0.321 |
| CGCATGTC | active: 0.348 |
| TCAGCTAA | inactive: 0.0391 |
| CTAATCTC | inactive: 0.088 |
| GACCTGAA | inactive: -0.0723 |
| CACGAGAG | inactive: -0.0619 |
| AATGGGAT | inactive: -0.0665 |
| CAGCTAGC | inactive: -0.115 |
| CGCGCGAG | inactive: -0.195 |
| AGAACAAA | inactive: 0.191 |

| Sequence | PBM E-score |
| --- | --- |
| AATTATAT | inactive: 0.177 |
| AAAGTGGG | inactive: -0.137 |
| CTGACTGA | inactive: -0.123 |
| AATGGACT | inactive: 0.0218 |
| AGTCCTGA | inactive: -0.0446 |
| GCTCTATA | inactive: -0.0191 |
| CGGTTTAC | inactive: 0.0112 |
| TTTAGAAA | inactive: 0.0742 |
| CGATCTCC | inactive: -0.138 |
| CGGGGACA | inactive: 0.0511 |
| CACGCAAG | inactive: 0.043 |
| ACTGCACC | inactive: -0.0791 |
| GTTAGTCA | inactive: 0.0756 |
| GCGTCAAC | inactive: 0.0376 |
| AGCTTGAT | inactive: 0.0288 |
| CACTAAGC | inactive: -0.112 |
| ATAGCAAG | inactive: 0.0735 |
| AACCGTGT | inactive: 0.309 |
| AGTGCCGG | inactive: -0.122 |
| AAACCCAT | inactive: 0.106 |
| GTTTGCCA | inactive: -0.0169 |
| ACGAGACG | inactive: -0.0717 |
| ATGATGGG | inactive: 0.0416 |
| CCGCGTAA | inactive: -0.0803 |
| ATGCGCTA | inactive: 0.0382 |

| Sequence | PBM E-score |
| --- | --- |
| CTTAAGAC | inactive: -0.0272 |
| CGAAGAGC | inactive: -0.0769 |
| ACGGTCCT | inactive: -0.222 |
| CGATCTTA | inactive: 0.00359 |
| TTACGGAA | inactive: 0.0469 |
| TAGTCAAA | ≥ 0.136 |
| CATTGAGC | inactive: -0.0415 |
| CGTAAAAG | inactive: 0.0636 |
| CGATGCGC | inactive: -0.109 |
| AACGATAT | ≥ 0.161 |
| CAACTCAA | inactive: 0.182 |
| CTGAGGCA | inactive: -0.12 |
| GCGTCTGA | inactive: -0.0564 |
| AAAATCGA | inactive: 0.0213 |
| ATACTATA | inactive: 0.183 |
| AAAATCCG | inactive: -0.011 |
| CTTGTCGA | inactive: 0.303 |
| CCAAGACG | inactive: -0.12 |
| ACTGTCCA | inactive: 0.0253 |
| CGTCTAAG | inactive: -0.13 |
| AACCTATA | inactive: 0.129 |
| AGCTGGTC | inactive: -0.0187 |
| CACACAGA | inactive: 0.118 |
| ATCGACAG | inactive: 0.00148 |
| GTTGTCTA | active: 0.321 |

| Sequence | PBM E-score |
| --- | --- |
| ACGCGTAT | ≥ 0.142 |
| GGAGTAGA | inactive: 0.016 |
| ACCTGGAT | inactive: -0.0462 |
| TATCGATA | ≥ 0.228 |
| AGCCTAAG | inactive: -0.132 |
| GATCGAGC | inactive: -0.0639 |
| GACCCCTA | inactive: -0.171 |
| ACTGTTTC | inactive: 0.0314 |
| ACCTATCT | inactive: 0.129 |
| AGCCCGAC | inactive: -0.093 |
| CGCGGCAG | inactive: -0.246 |
| AATGAGGG | inactive: -0.0283 |
| GACAAAGC | inactive: -0.00336 |
| CTTGCACA | inactive: 0.0742 |
| CCCACGTC | inactive: -0.119 |
| CTGCACTC | inactive: -0.104 |
| AGAGCCAT | inactive: -0.086 |
| GCCAGTCC | inactive: -0.213 |
| AAATTTGG | inactive: 0.0427 |
| ATGAGTCC | inactive: -0.00857 |
| ATAAGCGC | inactive: -0.0781 |
| CAGTTCCG | inactive: -0.126 |
| AATAGGCC | inactive: -0.109 |
| AACAGGTA | inactive: 0.174 |
| CTAGTGGC | inactive: -0.0741 |

| Sequence | PBM E-score |
| --- | --- |
| CGTCGAAC | inactive: -0.0268 |
| AGACAAAC | inactive: 0.106 |
| CTTTAATA | inactive: 0.0813 |
| ACATGCAG | inactive: 0.294 |
| CTACCGAG | inactive: -0.103 |
| AGCAAGCC | inactive: -0.142 |
| CCGGATGA | inactive: -0.0789 |
| AAGCGTGA | inactive: 0.00049 |
| CTCAGCGA | inactive: -0.115 |
| CCTCGACC | inactive: -0.158 |
| ACTCAAAG | inactive: -0.0118 |
| CCACCCGG | inactive: -0.196 |
| AACAAACT | inactive: 0.23 |
| AGTGGTCA | inactive: -0.0388 |
| ATGAGGTC | inactive: -0.0889 |
| CAAACGAA | inactive: 0.083 |
| GATAAAGC | inactive: -0.0307 |
| AAGCATGT | active: 0.356 |
| AAGGGAGC | inactive: -0.148 |
| ACCTGAAA | inactive: -0.0499 |
| CAGCGGTC | inactive: -0.106 |
| ACTTCCGG | inactive: -0.13 |
| CCGGATCC | inactive: -0.0498 |
| CCCAGTCA | inactive: -0.143 |
| ATTACTGG | inactive: -0.00374 |

| Sequence | PBM E-score |
| --- | --- |
| ACTATGTG | inactive: 0.131 |
| ACCTGACA | ≥ 0.218 |
| GGGTGTAC | inactive: 0.193 |
| AGTACATG | active: 0.45 |
| GTAGTCGA | inactive: 0.0815 |
| ACTTAGAG | inactive: -0.125 |
| CGGACTAC | inactive: 0.0344 |
| CAGCAGGC | inactive: -0.0755 |
| CGCGAAGC | inactive: -0.112 |
| CGGCCACG | inactive: -0.216 |
| CGATCACG | inactive: 0.125 |
| ACAGTCTC | inactive: 0.0434 |
| AGCGCAGG | inactive: -0.265 |
| CAGGATTC | inactive: 0.0462 |
| GCACCTTA | inactive: -0.0719 |
| ACGTATTA | inactive: 0.199 |
| GGGTTACA | inactive: 0.176 |
| CACTCGTA | inactive: 0.0572 |
| TCCGCTCA | inactive: -0.156 |
| ATTGAAAC | inactive: 0.129 |
| ACTAATGA | inactive: 0.112 |
| GGAATTGA | inactive: 0.0417 |
| AGGTGATC | inactive: 0.0871 |
| GAGGGTAC | inactive: -0.0497 |
